From patent US20200087392A1 (Novartis, published 2020)

Key:
NOV001 = biological target: T1, NOV001; test: solution equilibrium titration (SET): NOV001 held at 10 pM, human β-klotho (KLB) titrated in solution; the concentration is that of KLB
T1 construct: also called IgG1 LALA version of NOV003

NOV002 = biological target: T2, NOV002; test: solution equilibrium titration (SET): NOV002 held at 10 pM, human β-klotho (KLB) titrated in solution; the concentration is that of KLB
T2 construct: also called IgG1 LALA version of NOV004

NOV004 = biological target: T3, NOV004; test: solution equilibrium titration (SET): NOV004 held at 10 pM, human β-klotho (KLB) titrated in solution; the concentration is that of KLB
T3 construct: also called IgG1 DAPA version of NOV002
T3 sequence (heavy, as listed by the source, chain 1 of 2): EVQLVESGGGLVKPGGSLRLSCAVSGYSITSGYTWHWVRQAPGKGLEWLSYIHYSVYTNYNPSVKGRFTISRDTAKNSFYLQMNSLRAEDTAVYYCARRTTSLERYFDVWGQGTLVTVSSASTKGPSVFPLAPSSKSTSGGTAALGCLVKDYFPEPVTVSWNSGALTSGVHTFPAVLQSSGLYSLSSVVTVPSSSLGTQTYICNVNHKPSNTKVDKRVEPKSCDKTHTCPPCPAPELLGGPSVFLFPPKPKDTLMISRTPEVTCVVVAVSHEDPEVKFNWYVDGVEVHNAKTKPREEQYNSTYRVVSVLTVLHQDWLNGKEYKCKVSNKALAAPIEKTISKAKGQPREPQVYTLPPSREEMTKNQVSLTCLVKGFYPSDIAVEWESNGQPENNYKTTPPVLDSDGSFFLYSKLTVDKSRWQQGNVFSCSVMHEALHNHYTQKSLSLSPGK
T3 sequence (light, as listed by the source, chain 2 of 2): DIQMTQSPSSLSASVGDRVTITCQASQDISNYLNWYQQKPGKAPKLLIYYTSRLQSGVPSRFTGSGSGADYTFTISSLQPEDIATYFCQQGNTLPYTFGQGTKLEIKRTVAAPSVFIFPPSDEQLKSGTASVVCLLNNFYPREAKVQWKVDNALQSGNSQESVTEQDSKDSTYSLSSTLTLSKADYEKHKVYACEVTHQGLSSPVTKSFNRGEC

T1 sequence (VH, as listed by the source, chain 1 of 2): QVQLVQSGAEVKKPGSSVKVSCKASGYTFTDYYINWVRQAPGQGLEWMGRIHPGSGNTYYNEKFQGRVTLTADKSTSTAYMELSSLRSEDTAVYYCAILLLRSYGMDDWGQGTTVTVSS
T1 sequence (VL, as listed by the source, chain 2 of 2): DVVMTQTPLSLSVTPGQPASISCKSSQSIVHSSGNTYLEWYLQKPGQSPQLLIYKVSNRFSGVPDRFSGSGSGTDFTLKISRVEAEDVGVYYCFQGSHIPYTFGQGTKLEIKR
T2 sequence (heavy, as listed by the source, chain 1 of 2): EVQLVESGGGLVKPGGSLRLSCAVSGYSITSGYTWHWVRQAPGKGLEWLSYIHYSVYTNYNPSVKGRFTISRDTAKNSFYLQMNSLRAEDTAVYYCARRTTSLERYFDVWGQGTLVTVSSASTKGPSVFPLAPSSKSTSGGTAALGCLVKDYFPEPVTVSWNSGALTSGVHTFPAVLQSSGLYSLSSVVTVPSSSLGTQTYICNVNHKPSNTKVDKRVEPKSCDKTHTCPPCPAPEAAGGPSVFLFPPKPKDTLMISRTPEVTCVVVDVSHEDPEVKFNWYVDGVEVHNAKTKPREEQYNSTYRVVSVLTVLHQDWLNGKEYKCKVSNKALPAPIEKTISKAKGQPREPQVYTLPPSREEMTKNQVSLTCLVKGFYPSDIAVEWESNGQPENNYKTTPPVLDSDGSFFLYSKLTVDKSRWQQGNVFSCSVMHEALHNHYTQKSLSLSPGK
T2 sequence (light, as listed by the source, chain 2 of 2): as the sequence (light, as listed by the source, chain 2 of 2) above

B1: human β-klotho (receptor)
chain: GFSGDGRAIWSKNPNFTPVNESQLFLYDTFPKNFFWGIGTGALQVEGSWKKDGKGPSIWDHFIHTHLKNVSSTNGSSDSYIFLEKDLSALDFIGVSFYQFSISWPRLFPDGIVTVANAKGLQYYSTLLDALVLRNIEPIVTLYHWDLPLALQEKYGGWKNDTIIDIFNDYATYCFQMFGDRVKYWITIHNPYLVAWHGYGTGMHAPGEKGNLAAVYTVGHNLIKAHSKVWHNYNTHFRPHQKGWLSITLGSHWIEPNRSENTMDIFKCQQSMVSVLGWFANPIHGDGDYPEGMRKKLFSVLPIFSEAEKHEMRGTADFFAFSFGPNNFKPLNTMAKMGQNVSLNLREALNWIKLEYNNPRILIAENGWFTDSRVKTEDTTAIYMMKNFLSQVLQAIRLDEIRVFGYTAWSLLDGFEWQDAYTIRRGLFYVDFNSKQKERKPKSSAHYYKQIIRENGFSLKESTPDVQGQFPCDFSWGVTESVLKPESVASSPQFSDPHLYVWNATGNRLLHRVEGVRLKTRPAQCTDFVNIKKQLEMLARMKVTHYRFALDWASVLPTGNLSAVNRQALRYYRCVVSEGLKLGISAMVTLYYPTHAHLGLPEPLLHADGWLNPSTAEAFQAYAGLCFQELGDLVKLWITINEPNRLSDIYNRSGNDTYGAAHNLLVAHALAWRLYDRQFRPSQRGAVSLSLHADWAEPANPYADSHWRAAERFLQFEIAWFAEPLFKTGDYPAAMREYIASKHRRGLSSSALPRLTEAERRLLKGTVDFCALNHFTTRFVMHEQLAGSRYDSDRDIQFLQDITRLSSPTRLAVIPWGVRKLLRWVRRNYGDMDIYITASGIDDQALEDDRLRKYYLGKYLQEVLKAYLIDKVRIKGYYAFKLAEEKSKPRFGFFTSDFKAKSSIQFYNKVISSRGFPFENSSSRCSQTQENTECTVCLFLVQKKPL
notes: Antigen of the SET assay; also called beta-klotho
NOV001
  IC50 (read off the curve): ~0.08 nM
NOV002
  IC50 (read off the curve): ~0.03 nM
NOV004
  IC50 (read off the curve): ~0.03 nM
